In all, about 33,000 sequences were measured (“E-score (-0.5 to 0.5)”: median about -0.021, highest 2% from about 0.32 on). Some of the results follow.
Biological target: T1, Zap1 (UniProt P47043)
T1 sequence: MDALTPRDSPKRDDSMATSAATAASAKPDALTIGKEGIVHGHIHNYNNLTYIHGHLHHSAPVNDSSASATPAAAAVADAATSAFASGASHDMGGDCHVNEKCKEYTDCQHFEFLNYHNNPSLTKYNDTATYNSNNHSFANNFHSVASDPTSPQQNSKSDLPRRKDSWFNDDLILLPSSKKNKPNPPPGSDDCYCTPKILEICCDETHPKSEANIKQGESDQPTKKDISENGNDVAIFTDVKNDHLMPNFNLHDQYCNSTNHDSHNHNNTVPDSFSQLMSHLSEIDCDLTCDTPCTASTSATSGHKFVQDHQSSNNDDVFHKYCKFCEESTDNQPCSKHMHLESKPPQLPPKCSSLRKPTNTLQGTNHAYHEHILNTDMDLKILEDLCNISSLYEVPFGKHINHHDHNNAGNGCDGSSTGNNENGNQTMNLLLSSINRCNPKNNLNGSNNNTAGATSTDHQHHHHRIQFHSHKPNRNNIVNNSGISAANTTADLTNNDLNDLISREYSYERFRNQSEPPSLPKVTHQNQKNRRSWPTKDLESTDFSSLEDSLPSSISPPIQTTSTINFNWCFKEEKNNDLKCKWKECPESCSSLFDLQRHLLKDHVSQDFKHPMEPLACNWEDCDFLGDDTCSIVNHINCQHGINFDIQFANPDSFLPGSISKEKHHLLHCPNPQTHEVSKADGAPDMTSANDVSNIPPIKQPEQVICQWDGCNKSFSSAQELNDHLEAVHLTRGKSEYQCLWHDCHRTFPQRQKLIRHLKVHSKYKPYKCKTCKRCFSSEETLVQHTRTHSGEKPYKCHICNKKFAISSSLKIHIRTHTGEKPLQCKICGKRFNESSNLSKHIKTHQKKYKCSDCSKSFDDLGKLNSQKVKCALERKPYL
Assay: PBM E-score (8-mer binding enrichment) (E-score (-0.5 to 0.5)); higher = stronger / more preferred TF binding; most listed sequences are background and not binding sites
Conditions: protein concentration: 200 nM; construct: GST-full length
Summary of the method: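 Yeast transcription factors, full-length or as DNA-binding domains, were expressed with a GST tag using PURExpress in vitro transcription/translation. At about 100-200 nM they were applied to universal all-10-mer Agilent arrays, double-stranded by primer extension on fresh or once-stripped slides. Fluorescent anti-GST detected bound protein, and masliner normalised the scans. E-scores for ungapped eight-base words, pooled with reverse complements, came from the Universal PBM Analysis Suite.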

Sequence | PBM E-score
TAGCTGAA | -0.0861
GTCTGCAC | -0.125
CGCTTCCG | -0.144
AACTAGGC | 0.006
AGCAAGAA | -0.0654
AGTTCCCG | -0.014
CAGTCCTA | -0.146
GAGCCAAC | -0.0386
GAGTTGAC | -0.155
CAGCGATG | -0.113
ACCGGACT | -0.111
CATCAGAA | 0.0406
GAAACCCC | 0.18
AGGGCTGC | -0.0468
GTGTGTCA | 0.0959
ATTTCGGA | 0.116
GGGTTTGA | 0.161
GGACACGA | 0.043
GTTTATCA | 0.209
ACGAGTTG | 0.0856
ACGCGTTA | 0.0976
GGAATGCA | 0.0522
AGAGACTG | -0.24
AGTTAGAT | 0.0546
ATCACCGC | 0.0296

Sequence | PBM E-score
ACTCGCCA | -0.0338
ACCGAGCA | 0.0749
AACCTCGG | 0.302
GGTTAGAC | 0.287
CTTAGAAA | 0.125
CTGGATAC | -0.0732
CTGCTCGC | -0.0558
CTCGCCTC | -0.356
CGCGCGGA | 0.0498
ATTCTGCC | -0.197
AATAGAAG | -0.0995
CAGAGACC | -0.0259
AAGTTCTG | -0.148
TAGCAGGA | -0.14
GGGCGAAA | -0.0509
GGCCCTTA | 0.0678
ACGTAATA | 0.079
AGGGTTCC | 0.354
CCGGCGAC | -0.391
ACAATAAC | 0.299
GCAACTCA | 0.114
CTACCCAG | 0.0578
TAGCCTGA | -0.0183
CCGCATCC | -0.0138
ACAAAAGG | 0.148

Sequence | PBM E-score
CTGAAGCA | 0.0598
ATTATAGA | 0.118
CACTTAGG | 0.1
CGGTTACG | 0.401
CAGGGGAG | -0.0274
CTCTTCGC | -0.169
ACTTGCCA | -0.0189
CTCATAGC | -0.266
AGGGGGAT | -0.297
GAATTTTA | 0.0203
ATGTGAGG | 0.0181
ACTAGAAC | -0.0498
ATTTATTC | 0.0832
GGTACATA | 0.146
GATCGATA | 0.0251
CCACAGAA | 0.0259
GAAAACGC | -0.107
ATTGGGTA | 0.156
AATCGCAC | -0.223
AACACGAT | -0.159
CTCGATGC | -0.0897
GGCTACTA | 0.0837
ACGATCAT | 0.165
GGTACGAC | -0.0556
CATCCCAA | 0.0674

Sequence | PBM E-score
CAGACAGA | -0.0796
GCCGAGAC | -0.12
GCACTCCA | -0.173
ACTTTCAG | -0.0214
CACTCCGC | -0.143
CATATCTC | -0.225
AAGTACGT | 0.0315
CGGGATCA | -0.0134
ATCGCTTG | -0.0906
AGCCCAAT | -0.0124
AGGCAATC | -0.244
CCTTTGTA | 0.178
CCACTGGG | 0.0233
ACTTTTCA | 0.0745
ACGAATGC | -0.107
GTCGGCAC | -0.131
AAAATAAC | 0.21
AGCACACG | -0.146
CACGTGAA | -0.108
TATGGAAA | 0.149
CGCCGAAA | -0.0232
CGGACATC | -0.0493
ATATGGCG | -0.174
AGTGGATC | -0.0804
GGTCAAGA | 0.242

Sequence | PBM E-score
CGCGGACC | 0.127
CAGGATCA | -0.0306
CCTACTAG | 0.0753
CAGGGTAA | 0.354
CACGAACC | 0.129
AACATGAT | 0.155
TAATCCTA | -0.0514
AAGCGATC | -0.176
AAACACAC | 0.202
ACCTACAT | 0.108
GGGGCTAC | 0.0181
GGATAGAC | -0.192
ACGGTACT | 0.0886
CGCAAGAG | 0.0283
GGGTTAGA | 0.284
GATAGGAC | -0.166
CATCAACG | -0.116
ACATCACT | -0.113
ACGACATG | -0.0709
TGGTACCA | 0.357
CAGCAATC | -0.206
CTATTCAC | 0.059
AAAACCCG | 0.131
AAGAGTGT | -0.01
CAAGAAGA | 0.0777

Sequence | PBM E-score
CAAAAACC | 0.302
GCATTACA | -0.086
GCTGGGGA | -0.0703
CTCGCACA | -0.00714
CTGACAGC | -0.101
CCAAAGTC | 0.0188
GGCTGGAA | -0.121
ATGTGTCC | 0.0846
CGTTTTGC | -0.0673
AACTAAGT | 0.0654
CCTTCACG | 0.113
CCCTGCAG | 0.178
CGTGAGAG | -0.254
GGCCAAGA | -0.263
AAGAGGCC | -0.122
AGCGCCCT | -0.212
GTTCGTGA | 0.0541
CAAAGTGG | -0.13
AGTACGTA | -0.12
GGTAGACC | 0.122
GACCGACC | 0.0331
GTGACCGA | 0.0488
ACGAAGCG | -0.155
CAGGTCCA | 0.0524
CTTGCGCC | -0.165

Sequence | PBM E-score
CACCACTG | -0.0127
ATCGACGA | -0.113
CCGACTAC | -0.0291
CTAGTGAA | 0.103
ACCCAAAC | 0.312
CCAGGGAC | -0.163
ATGTCTTC | -0.2
ATCCCCAC | -0.0104
ATTAAGGA | -0.0248
ATTCTTTG | 0.109
GCTGATGA | -0.171
AGCTGCGA | -0.102
GCCATTCA | 0.105
GACCGGAC | -0.0718
CACGAGTC | 0.00023
CTCTAATC | -0.192
ACCTTCGC | 0.211
CAGCGGAG | -0.279
CAACAGCA | -0.00694
CAAACGAG | 0.0176
ATATTGAA | 0.0228
AATCATAG | 0.0588

— the supplement of paper PMC3334620
